Source: the BET-seq Pho4 binding data (Le et al. 2018)
The other results are listed elsewhere or left out. The energies were worked out here from pooled read counts, against the library average; single values are noisy.

These sequences were tested against T1, Pho4 (S. cerevisiae) (UniProt P07270) (assay: relative binding free energy (BET-seq); higher = weaker binding). Details: reference: library average.
T1 sequence: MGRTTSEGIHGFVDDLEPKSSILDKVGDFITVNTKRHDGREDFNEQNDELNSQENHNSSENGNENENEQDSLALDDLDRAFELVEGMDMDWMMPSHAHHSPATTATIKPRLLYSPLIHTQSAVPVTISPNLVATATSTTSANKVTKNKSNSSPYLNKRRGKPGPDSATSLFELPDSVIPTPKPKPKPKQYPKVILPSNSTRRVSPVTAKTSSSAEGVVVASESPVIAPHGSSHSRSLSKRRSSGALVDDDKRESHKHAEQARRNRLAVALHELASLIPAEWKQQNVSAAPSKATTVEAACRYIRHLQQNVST
ACCTGCACGTGTGTTG was tested, and the “relative binding free energy” value was 0.08 kcal/mol.
For CTGTTCACGTGGGAGT, the “relative binding free energy” value was 0.07 kcal/mol.
With AATGACACGTGGGTGA the “relative binding free energy” value was 0.09 kcal/mol.
TTTGTCACGTGAATCG was tested, and the “relative binding free energy” value was 0.28 kcal/mol.
In the case of GTTAACACGTGTTTTT, the “relative binding free energy” value is reported as 0.08 kcal/mol.
In the case of AAATGCACGTGTTATG, the “relative binding free energy” value is reported as -0.04 kcal/mol.
For GTGTACACGTGTAAGT, the “relative binding free energy” value was 0.16 kcal/mol.
For GGGTACACGTGGTCTA, the “relative binding free energy” value was 0 kcal/mol.
With AGTCACACGTGGGTGT the “relative binding free energy” value was -0.1 kcal/mol.
TTTTGCACGTGAGACG was tested, and the “relative binding free energy” value was 0.16 kcal/mol.
For GATGTCACGTGGGGCC, the “relative binding free energy” value was 0.12 kcal/mol.
With TTGTACACGTGGCGTA the “relative binding free energy” value was -0.14 kcal/mol.
With TGCTGCACGTGAGTTT the “relative binding free energy” value was 0.21 kcal/mol.
With TGTTTCACGTGGAGAC the “relative binding free energy” value was 0.2 kcal/mol.
In the case of GGACTCACGTGGGAAG, the “relative binding free energy” value is reported as 0.27 kcal/mol.
For ATGTTCACGTGTAGAC, the “relative binding free energy” value was 0.25 kcal/mol.
TAAGACACGTGTTGAT was tested, and the “relative binding free energy” value was -0.09 kcal/mol.
With TAAGTCACGTGCGTTA the “relative binding free energy” value was -0.05 kcal/mol.
For TTTGCCACGTGCGGGA, the “relative binding free energy” value was -0.16 kcal/mol.
For AAGATCACGTGTGAGG, the “relative binding free energy” value was 0.23 kcal/mol.
TTCTTCACGTGGGAGG was tested, and the “relative binding free energy” value was 0.25 kcal/mol.
In the case of TGGCTCACGTGTATTT, the “relative binding free energy” value is reported as 0.1 kcal/mol.
ATGGACACGTGGCTGG was tested, and the “relative binding free energy” value was -0.04 kcal/mol.
With AGTATCACGTGCGTTG the “relative binding free energy” value was -0.09 kcal/mol.
TTAAGCACGTGGCATG was tested, and the “relative binding free energy” value was -0.18 kcal/mol.
For TTTGGCACGTGCGTCG, the “relative binding free energy” value was -0.22 kcal/mol.
AAGTACACGTGATGGA was tested, and the “relative binding free energy” value was 0.18 kcal/mol.
With GGGTCCACGTGAGGGC the “relative binding free energy” value was 0.1 kcal/mol.
For ATCGGCACGTGAAGGT, the “relative binding free energy” value was 0.2 kcal/mol.
For ACCGGCACGTGGGGTT, the “relative binding free energy” value was -0.22 kcal/mol.
With AAATGCACGTGAGGTA the “relative binding free energy” value was 0.1 kcal/mol.
With GTTTACACGTGAGTAG the “relative binding free energy” value was 0.31 kcal/mol.
With ATGTGCACGTGATGGT the “relative binding free energy” value was 0.04 kcal/mol.
In the case of ATGAGCACGTGTAGAG, the “relative binding free energy” value is reported as 0.01 kcal/mol.
ATGAACACGTGTTAGT was tested, and the “relative binding free energy” value was -0.11 kcal/mol.
With AGGGGCACGTGGAACT the “relative binding free energy” value was -0.06 kcal/mol.
In the case of CGAGTCACGTGTGGTA, the “relative binding free energy” value is reported as 0.02 kcal/mol.
TAGGTCACGTGCGGTT was tested, and the “relative binding free energy” value was 0.1 kcal/mol.
With TGGTCCACGTGGGGGC the “relative binding free energy” value was -0.19 kcal/mol.
In the case of ATCTTCACGTGGTGAT, the “relative binding free energy” value is reported as 0.21 kcal/mol.
With GGGCTCACGTGGATGG the “relative binding free energy” value was 0.35 kcal/mol.
With TTAGGCACGTGAAATT the “relative binding free energy” value was 0.18 kcal/mol.
AATATCACGTGTTTAT was tested, and the “relative binding free energy” value was 0.26 kcal/mol.
AAAGGCACGTGGGTCG was tested, and the “relative binding free energy” value was -0.16 kcal/mol.
With GTTAGCACGTGAGTAG the “relative binding free energy” value was 0.29 kcal/mol.
TTGGTCACGTGTCTGC was tested, and the “relative binding free energy” value was 0.18 kcal/mol.
With ATAATCACGTGCGGTG the “relative binding free energy” value was 0.2 kcal/mol.
TGAGGCACGTGTGTAA was tested, and the “relative binding free energy” value was 0.06 kcal/mol.
For GAAAACACGTGTTGGT, the “relative binding free energy” value was 0.04 kcal/mol.
With GTGAACACGTGTGGTG the “relative binding free energy” value was -0.03 kcal/mol.
For GTAGTCACGTGTCTTA, the “relative binding free energy” value was 0.22 kcal/mol.
In the case of CGGTGCACGTGTGTGT, the “relative binding free energy” value is reported as 0.03 kcal/mol.
With GGGCACACGTGGTTGG the “relative binding free energy” value was -0.04 kcal/mol.
ACGATCACGTGGGTGG was tested, and the “relative binding free energy” value was -0.02 kcal/mol.
GGAGGCACGTGGGCTC was tested, and the “relative binding free energy” value was -0.21 kcal/mol.
In the case of TTTTGCACGTGGGCAT, the “relative binding free energy” value is reported as -0.2 kcal/mol.
In the case of TTGTACACGTGCATGG, the “relative binding free energy” value is reported as 0.07 kcal/mol.
CCTAGCACGTGGGTGG was tested, and the “relative binding free energy” value was -0.19 kcal/mol.
For TATATCACGTGGTGTT, the “relative binding free energy” value was 0.04 kcal/mol.
In the case of AGTGACACGTGCGTGT, the “relative binding free energy” value is reported as -0.16 kcal/mol.
For TGGTTCACGTGTTTGT, the “relative binding free energy” value was 0.18 kcal/mol.
In the case of GGGGGCACGTGCTGAG, the “relative binding free energy” value is reported as -0.21 kcal/mol.
In the case of CGCGTCACGTGTGGCG, the “relative binding free energy” value is reported as 0.11 kcal/mol.
For GGTGGCACGTGAACTT, the “relative binding free energy” value was 0.22 kcal/mol.
With TAGGACACGTGGTGGG the “relative binding free energy” value was 0.02 kcal/mol.
For AATATCACGTGGTATG, the “relative binding free energy” value was 0.05 kcal/mol.
In the case of GTATACACGTGTTATT, the “relative binding free energy” value is reported as 0.1 kcal/mol.
In the case of GTGCGCACGTGCGTTG, the “relative binding free energy” value is reported as -0.01 kcal/mol.
With TCGGTCACGTGGCTTT the “relative binding free energy” value was 0.13 kcal/mol.
With GGTAGCACGTGGGACT the “relative binding free energy” value was -0.11 kcal/mol.
In the case of AGGGTCACGTGAGCTA, the “relative binding free energy” value is reported as 0.25 kcal/mol.
TTAGTCACGTGTCGAG was tested, and the “relative binding free energy” value was 0.1 kcal/mol.
For TTTAACACGTGTGACG, the “relative binding free energy” value was 0.1 kcal/mol.
For AGAGGCACGTGAGAGT, the “relative binding free energy” value was 0.03 kcal/mol.
In the case of AGTAGCACGTGAGCTG, the “relative binding free energy” value is reported as 0.07 kcal/mol.
With GAGAACACGTGGTGTT the “relative binding free energy” value was 0 kcal/mol.
TTATGCACGTGTGACG was tested, and the “relative binding free energy” value was -0.02 kcal/mol.
With GGTTTCACGTGCTTAA the “relative binding free energy” value was 0.24 kcal/mol.
In the case of GTAGTCACGTGTATTG, the “relative binding free energy” value is reported as 0.1 kcal/mol.
With TTAATCACGTGTGATA the “relative binding free energy” value was 0.04 kcal/mol.
AGTTGCACGTGCATAG was tested, and the “relative binding free energy” value was -0.11 kcal/mol.
GTGAGCACGTGGGTGA was tested, and the “relative binding free energy” value was -0.2 kcal/mol.
For GGGTTCACGTGTTACT, the “relative binding free energy” value was 0.34 kcal/mol.
For CGGGCCACGTGAGGTG, the “relative binding free energy” value was 0.05 kcal/mol.
TATAGCACGTGTGCTT was tested, and the “relative binding free energy” value was -0.15 kcal/mol.
In the case of GTGGTCACGTGTCACG, the “relative binding free energy” value is reported as 0.18 kcal/mol.
TGGAGCACGTGACAGT was tested, and the “relative binding free energy” value was 0.05 kcal/mol.
In the case of TTTGGCACGTGAGTAG, the “relative binding free energy” value is reported as 0.21 kcal/mol.
For TTAGACACGTGTGTTC, the “relative binding free energy” value was 0.1 kcal/mol.
In the case of CAATTCACGTGGTAGG, the “relative binding free energy” value is reported as 0.18 kcal/mol.
For CCTTGCACGTGGTAGT, the “relative binding free energy” value was -0.06 kcal/mol.
For GAGAACACGTGGAGGG, the “relative binding free energy” value was 0.11 kcal/mol.
With GTCGACACGTGGGGGG the “relative binding free energy” value was -0.1 kcal/mol.
For ATAGTCACGTGGCGGT, the “relative binding free energy” value was -0.03 kcal/mol.
GGTGGCACGTGTGGGC was tested, and the “relative binding free energy” value was 0.07 kcal/mol.
For AGGGTCACGTGGGTTT, the “relative binding free energy” value was 0 kcal/mol.
With GTGTTCACGTGTATTC the “relative binding free energy” value was 0.31 kcal/mol.
In the case of CGGATCACGTGGATTG, the “relative binding free energy” value is reported as 0.18 kcal/mol.
For AAGTTCACGTGATTTA, the “relative binding free energy” value was 0.24 kcal/mol.
With TTTCTCACGTGAAGTT the “relative binding free energy” value was 0.33 kcal/mol.
GTTAGCACGTGTAGAG was tested, and the “relative binding free energy” value was -0.06 kcal/mol.
With ATCGGCACGTGTTGTA the “relative binding free energy” value was -0.1 kcal/mol.
CTGGTCACGTGTTAAG was tested, and the “relative binding free energy” value was 0.25 kcal/mol.
With AGGTTCACGTGTGGAG the “relative binding free energy” value was 0.3 kcal/mol.
TGAGGCACGTGTGTGG was tested, and the “relative binding free energy” value was -0.05 kcal/mol.
With GGGTCCACGTGTCTTG the “relative binding free energy” value was 0.11 kcal/mol.
In the case of CGTGGCACGTGTATTA, the “relative binding free energy” value is reported as -0.11 kcal/mol.
With TGGGGCACGTGTTCTA the “relative binding free energy” value was -0.04 kcal/mol.
In the case of GGGGTCACGTGATTTT, the “relative binding free energy” value is reported as 0.41 kcal/mol.
For TTTGGCACGTGGTTGC, the “relative binding free energy” value was -0.12 kcal/mol.
In the case of GTCAGCACGTGGAGTT, the “relative binding free energy” value is reported as 0.05 kcal/mol.
For TGTGACACGTGAGGGT, the “relative binding free energy” value was 0.24 kcal/mol.
TTGAGCACGTGGTTCT was tested, and the “relative binding free energy” value was -0.08 kcal/mol.
For GGAAGCACGTGCAGGT, the “relative binding free energy” value was 0.01 kcal/mol.
With TCGGTCACGTGGCCGG the “relative binding free energy” value was 0.07 kcal/mol.
